Drawing on article PMC7819943, “Rice protein-binding microarrays: a tool to detect cis-acting elements near promoter regions in rice”, this text covers binding signal for 42 sequences.

Some of the results follow.

In this assay the target is T1, OsWOX13 (Oryza sativa, UniProt Q5QMM3 1-267).
T1 sequence: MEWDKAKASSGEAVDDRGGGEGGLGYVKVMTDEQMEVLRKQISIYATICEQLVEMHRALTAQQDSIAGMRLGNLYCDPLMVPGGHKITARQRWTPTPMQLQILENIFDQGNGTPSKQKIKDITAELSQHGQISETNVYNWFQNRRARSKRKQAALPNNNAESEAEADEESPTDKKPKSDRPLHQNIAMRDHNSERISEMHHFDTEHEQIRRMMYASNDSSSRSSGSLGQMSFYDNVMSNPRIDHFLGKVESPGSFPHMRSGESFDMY
Kind of assay: protein-binding microarray (RPBM); PBS, 2% BSA, 51.3 ng/ul salmon testes DNA, 50 uM zinc acetate, 200 nM TF, 25 C, 1 h; high values mean tight binding. Particulars: protein: recombinant; tags: N-terminal polyhistidine and DsRed monomer fusion (pET32a); label: CyDye5-dUTP incorporated in the synthesized complementary strand; 3' TTTTT single-stranded linker to array surface; dsDNA, one strand shown. In outline:
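In PBS with 2% BSA, salmon testes DNA and 50 µM zinc acetate, 200 nM protein was incubated on a custom Agilent array at 25 °C for 1 h and then washed off. The array had been made double-stranded by primer extension with Cy5-dUTP and blocked with 2% BSA. The proteins were transcription factors fused N-terminally to polyhistidine and DsRed, expressed in E. coli BL21-CodonPlus and purified on Ni–NTA. The binding signal is per-feature fluorescence intensity (arbitrary units) from an Axon 4000B scanner.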
Turning to “GAATGACTCAATTAGTCCGAATGACTGAAATTCCACGGGGCGGAGTCACCTAGTGCAG”, the binding signal was 14000 fluorescence intensity (a.u.). With “ATCCATAATGTAAAATTTTACCGTGTCACATCGAATATTACGGAGTCACCTAGTGCAG” the figure was 4480 fluorescence intensity (a.u.); with “CCTAAATTGGAGGAGGGGATAAACTACATTGAAATTTCATCGGAGTCACCTAGTGCAG”, 20300 fluorescence intensity (a.u.). For “TACAGCCGTTGACAGTTAACTGAACTTTCACTAGTTCAATCGGAGTCACCTAGTGCAG” the value was 6220 fluorescence intensity (a.u.); for “GAGTAATATTCAACATTTTGATTAGAGGTTAACCGGTGTACGGAGTCACCTAGTGCAG”, 5370 fluorescence intensity (a.u.); for “GCTAATTGCCGCAAGCGAAGTCTCTCGCGCGCGCACCTTGCGGAGTCACCTAGTGCAG”, 13800 fluorescence intensity (a.u.).

For “ATCACTTACAAGATTGACCAAATCACTTACAAGATTGGCCCGGAGTCACCTAGTGCAG”, the binding signal is 14000 fluorescence intensity (a.u.). For “GCACTAATTTATCTGCTAGTCTTATCTTGGCCACTTGGAACGGAGTCACCTAGTGCAG” the value was 16600 fluorescence intensity (a.u.); for “ATATATGTGGATAATAATTGAAGTACTTGCAGTTGCAGTACGGAGTCACCTAGTGCAG”, 4110 fluorescence intensity (a.u.); for “TTCAAATCATCTATAGTCAATTTAATAGCCAATTCATATACGGAGTCACCTAGTGCAG”, 5390 fluorescence intensity (a.u.). On to “TATATATATATATATATATATTATATGGCTTAGCTTGCTGCGGAGTCACCTAGTGCAG”, for which the binding signal was 10600 fluorescence intensity (a.u.). On to “TTAATTAACGGAATTACTCAACAACTCACATGGGACATGGCGGAGTCACCTAGTGCAG”, for which the binding signal was 21300 fluorescence intensity (a.u.). Turning to “AGCTGAAATTAAGAACAGACAGACATGATCACAGATCGAGCGGAGTCACCTAGTGCAG”, the binding signal is 10100 fluorescence intensity (a.u.). With “TAGTTATATTTGATTATCTTGCGAACCTATATATAATATGCGGAGTCACCTAGTGCAG” the figure was 5250 fluorescence intensity (a.u.).

Regarding “ATATTAATTGATGTTTTGGACAAGGTTGAGGTTAAACTTTCGGAGTCACCTAGTGCAG”, the binding signal is 38200 fluorescence intensity (a.u.). With “TGATAAATTTATTTCTTCAAATTCAGAAAGCTTGATGGTACGGAGTCACCTAGTGCAG” the figure was 22900 fluorescence intensity (a.u.). In the case of “AATAATGATAACTGATAAGGGTTTGTTTAGTCTGGATGAACGGAGTCACCTAGTGCAG”, the binding signal is 18800 fluorescence intensity (a.u.). For the sequence “TTAAATGTCAATTTTCTCCACATAGACTGGCCCATCGGTCCGGAGTCACCTAGTGCAG”, the binding signal is 39400 fluorescence intensity (a.u.). Take “TTTGACTGTTTTGAACCCATGAACAAGTGCTGCACCAGAACGGAGTCACCTAGTGCAG”: the binding signal is 5750 fluorescence intensity (a.u.). For the sequence “TATTTCACATGGTAATTAGACAGCTAATTCCAAGCTTAAACGGAGTCACCTAGTGCAG”, the binding signal is 9560 fluorescence intensity (a.u.). For “GCAAATATGTAAATTACACCTGGAGACATAGGTTGTGTTTCGGAGTCACCTAGTGCAG” the value was 8650 fluorescence intensity (a.u.); for “TAGATAGATAGATATGTTTGTGTTTAAACAATAGGATTAACGGAGTCACCTAGTGCAG”, 13600 fluorescence intensity (a.u.). Turning to “TTCTAAATTTGTGATGACAATAAGATTAACCTGTTTAAATCGGAGTCACCTAGTGCAG”, the binding signal was 7850 fluorescence intensity (a.u.). With “CCTTTGATTCAAATGATTGTAGCTTTCCAAATCCTATGAACGGAGTCACCTAGTGCAG” the figure was 7620 fluorescence intensity (a.u.); with “TGTTTAATTAGTTAAGCATCTCTAGTTAAGTTAGATCAAACGGAGTCACCTAGTGCAG”, 4520 fluorescence intensity (a.u.); with “ATGAGCTCAAACTGGCTGATTTGATAGGAGGACAAGCTGCCGGAGTCACCTAGTGCAG”, 5410 fluorescence intensity (a.u.). For “ATTAATTACGTGTACAAATTTTCAGCCCATCAAACGGGCGCGGAGTCACCTAGTGCAG” the value was 25100 fluorescence intensity (a.u.). “TGTGACTGCTCCTAAATGACATGCGACCCTCTAATAAATTCGGAGTCACCTAGTGCAG”: the binding signal was 13500 fluorescence intensity (a.u.). As to “GATGATTGGTCCAAGTCATGGCTTCCGCTTTCCCTTTTGTCGGAGTCACCTAGTGCAG”, the binding signal is 35900 fluorescence intensity (a.u.). For “GCCAAAACCAAAATTTAAATTTTCGTACTTAATTTTGAAGCGGAGTCACCTAGTGCAG” the value was 7460 fluorescence intensity (a.u.); for “GATTATTGATTATCAGTAAGGGAGATTGAAAGTAACAGAACGGAGTCACCTAGTGCAG”, 25700 fluorescence intensity (a.u.). For the sequence “GATAAGAATCTAAATAGATTAGATTAAACTAGATTATATTCGGAGTCACCTAGTGCAG”, the binding signal is 6100 fluorescence intensity (a.u.). As to “TACCGGATGATTTGTGTTCCTTTGCTGACTGTAGTGACGTCGGAGTCACCTAGTGCAG”, the binding signal was 14200 fluorescence intensity (a.u.). For “TTTTAATTAATTAGCTGTAAGTGTGTAAATCAACCATAACCGGAGTCACCTAGTGCAG” the value was 35000 fluorescence intensity (a.u.). Take “TCTAAACATGTAATTTTCAAGTTCACGGACCAAAGTAACACGGAGTCACCTAGTGCAG”: the binding signal was 3950 fluorescence intensity (a.u.). With “TATTGATGGTCAAATTTCAAATTATACTGTTAACATTTGACGGAGTCACCTAGTGCAG” the figure was 9870 fluorescence intensity (a.u.); with “ATAACAAAACAAATTACAGATTTTATCAGAATACTGCGAGCGGAGTCACCTAGTGCAG”, 8000 fluorescence intensity (a.u.).

With “CAACAAATGGCTGCACTAATTGGGGCTAATTGTATATAGTCGGAGTCACCTAGTGCAG”, the binding signal is 20500 fluorescence intensity (a.u.). Turning to “GTTTTGAATATTAATTTCATTCCTCTCGTGGATTCAGTTACGGAGTCACCTAGTGCAG”, the binding signal is 3920 fluorescence intensity (a.u.). For “AACCCTGATTTATGGACGGGTTTGTTGCTCCAGCAGACAACGGAGTCACCTAGTGCAG”, the binding signal is 13200 fluorescence intensity (a.u.). As for “CATGGCAAACTAATTAAATTTCTCAACACCTAATTTTCCCCGGAGTCACCTAGTGCAG”, the binding signal was 8740 fluorescence intensity (a.u.).

With “TTGATCAAATTGCCACGCAGACACCACGTCAGCCAAAACCCGGAGTCACCTAGTGCAG”, the binding signal is 5010 fluorescence intensity (a.u.).
